# From the supplement of paper PMC12632987
# The full ranking holds about 4,500 sequences; the median of “median log2 fold change of GCK-ALFA target abundance (FLAG IP / Myc IP barcode read proportion)” is about 0.078, and the lowest 2% start at about -0.6. This is one part of the list.
# B1: GBRAP_11_2628 (protein)
# chain: KKEILKEMAELAKKLAELVKKLLEEGVDNEELLKEIEETLKKIEELTKKYGTEADKTDVEVAKELFEEAKKDKENKEFYLEQLLAAARVLEGNYLLEIEE
# B2: GBRAP_184_5088 (protein)
# chain: KTLERLVEAETREELLAKVDEVIAEAKEEKADLVVEVRMPGLDVETALEIIERLGKAKKEGAFKNVTVGFAEAFTEEEADKILEKADKEGIKVVLALNEE
# B3: GBRAP_11_2629 (protein)
# chain: KKEILKKKAELAKKLAEKVEKLLKEGVDNEELLKEIEKLLKEIAELTEKYGTEADKSLVEVAKELFEEAKKDKENKEKYLKELLAAAKVLEGDYLLEIEE
# B4: GBRAP_128_3543 (protein)
# chain: SLEEARKEAEEVMEKIKNSSPEEAKKITKEFLEKLKTWTDEEVEAAVEVLIERLPELSAEKLEVLADTIREERGKFTPKKQELLADLEVEALNEAEELEE
# B5: GBRAP_39_5649 (protein)
# chain: DEEEEMELLVSYNIALAEKYMVEKNISEEELIEEGMKLLEEIAKEHPEIKELVEELIKLAKEGNEEQKLAAVGIALRYKEGAPIEEIKEDIEKLIAYFKK
# B6: GBRAP_52_5948 (protein)
# chain: ALEEALALLREALAAVLAGREEEARAILRELVARYDLETIRAAGEALAAELANADDAEHEAFVRLVDLLEEELIEAGVPEEDALALRGDIEAALAKAVAA
# B7: GBRAP_160_4770 (protein)
# chain: KEKLKKLKEEVKEIFDEYIALLKESEKEEAVTLVEGAVGEVLMAVMSSEAASEELEEKIAEIMDETIAEAKANADKDVAYFIALLKEAKEKILKLIEEEI
# B8: GBRAP_11_2668 (protein)
# chain: KKEALKEALELAREAAELAEKLIEEGVENEELLKELEEKLKKLEELAEKELDEAYKRDVKIARELFEKALEDEENAEEYMKLLLAALRVLAGNLELDLDE
# B9: GBRAP_184_5022 (protein)
# chain: MLLERTIKVENVEEAKEKLEELKEELKRLKADAVVYLEIKNPTKEILEEIAEKVGEIMESGAAKRLTVGIAAALTEEQIDFLVEKLSAAGARLVVALSEE
# B10: GBRAP_160_4201 (protein)
# chain: SEKVEKVIRLLREETERVIAEVPELSREEVANLADVEYGSVLMEAVELGIENDEILDTIADAADEIRRFLEENRDASVEEIKRGIREITERAIEEIKKIA
# B11: GBRAP_11_2650 (protein)
# chain: KKEVLEKAAKLAEEAAKTADKLIAEGVDNKELIEELTKKVEELKELVKKNASEALKKDVEVAVELLEEFLKDPENAEKYAKELRAALRVLEGNFLLEIEE
# B12: GBRAP_160_4589 (protein)
# chain: SEALEKMKKIVEEELEEAKEMIKGESAEQRAVIVRGATGAIVMELSELPEASDELLDKVLEIGDETAETILANPNITDEELEALLDEAIEKMKKAIEESL
# B13: GBRAP_39_5679 (protein)
# chain: EKEEEDEDTVSYLEGVAAKYLYTTGISEEEAFKRAKEILKKYAEEHPELKELLEELIEIAEEKGEEAKLALIGVAVLIEEGTPLEEIKEIIERVINYFKS
# B14: GBRAP_160_4354 (protein)
# chain: SETVERLIEEIREVTEEVIEELDTISVEEARIIADGRFGEVFMEAAEDENMSDEMEDVILDGRDRVLEFLEENKDASVEELKKGIREITEETIKRLKEIA
# B15: GBRAP_184_5316 (protein)
# chain: EVIHKVIEVSTVEEAREKLREVREEVKKTGKKYLVTIEIKNPTKELIKTIAEEIKKMKEEGLPVEFIVEIPEDVSEELMDFAIEEFDKAGAKLVVAIPDE
# B16: GBRAP_137_3671 (protein)
# chain: MIEVKIELEDGLAFAEVTVEGSKEELEKAAEIAEDIAGEIPNIAVSVKLTEDGKLEIDLFGTKEDIMAALKELAKRMNKTVEVTEYDLETGEVTKSTIKP
# B17: GBRAP_184_5132 (protein)
# chain: TLLERAVEAKTAEELIAKARAVVEEAAAAGARLVLSVFAEDLSVEDNIAVIRELGELKAAHPQIEAIIVDLPEVSEEDLDKLIEAADAAGVKLVAAIPDE
# B18: GBRAP_160_3994 (protein)
# chain: EEEKEKLFKEIKELLEEAYELMKGESPEERLAIARVTSGQILLTLEESGLVSDETIEEVDEILDEFVEWIAANPNASDEELKAKLEETFKKIKEVIEKNS
# B19: GBRAP_166_4888 (protein)
# chain: SEEEVKKKAEELKEELIEKLKKLSESQLEEKTELVFEWARELKKLGVSKREAVELLIEAAREVGLSEEALNAAAAAVIIELDLDEETIELLDKLIEEYLK
# B20: GBRAP_160_4021 (protein)
# chain: SEEIEELIKEIEELIEETIEDIEGLTPEERLTLVRGTVGEILQLAFESPVVSDETEDKIAEIGDETIARFEANADATLEEHRAIFEEFLEEIKELLESEK
# B21: GBRAP_128_3184 (protein)
# chain: SVEEVKKKTTELMEKIKNSSVEEARKIATELAEWLKTLSLEEVEAAAEVILEKLPELSEEKLEVLADVLREERPKFSPEKAEIVAGVEVEALNEAEELEE
# B22: GBRAP_35_5508 (protein)
# chain: SADDTAADMLVATIEDLTLAVPDLDVETATQIANQLIASAAALADDLADNPAALDRLRDAVTALRDAIEKHYGDSPLAKQTLAQLDALIARLDARRAAAA
# B23: GBRAP_11_2671 (protein)
# chain: MKETLLEAAEIAEKAAKVVKELIEKGVDDEELLKELEELLKKLEEIAKKHLSPALQRDVEVARELFEEMLKDKENKEKYAKELLAALRVLEGNLLLEADE
# B24: GBRAP_160_4461 (protein)
# chain: MEEIKKFVEELVKDVEEELEKNKNDSPENIINAAIIEIGSHLMEAVDKGIVTDEMEEILMEAMDKIRELAKTHPNASPEEIIEKIKEIVKEMAEKILKAA
# B25: GBRAP_184_5048 (protein)
# chain: KVKEEVIKYETLEELKEKLEALKEELKDFKGDLIVLLEAKKITKEDVEAAIDALADILKAGYVTSVTVGFDGEMSEEVIDLALKLGDEAGIKVVLALEEE
# B26: GBRAP_125_2971 (protein)
# chain: EEEELLEDLRTLALALGLSEEDAEEAVRLARASSVKQTLYAIAAALGYEELAEAVEKLTEEEAKEVLRRVTEEIRANPEMTPEEVKELLLEEAERAIEER
# B27: GBRAP_39_5692 (protein)
# chain: EEEEEDEDVVSYLQALAAGRLYETGKSLEEAYKEAKKILEEEAKRHPELKELLEELIKLADEKGEEAKEVLIGIAVLIEEGTPLEEIKEHIEKAINYFKK
# B28: GBRAP_26_5435 (protein)
# chain: VEETLRRAEEEMRKAAAKLGDPNKAAAAVAEFLTLLEEAVEEIEEKKLSKEEAEKLVEEKAEEFRKELKRLGVDEDKAKELVEVFKEQLRKVAEKILKER
# B29: GBRAP_84_7001 (protein)
# chain: SKEERREELLEFIIENSSIELLKLAYIYALLKNDNKSATRLLNALLERDPEAAAEALDLATEAALEDKEEEVKKELLEEAKKEGEEIYEAVEEYIELLEE
# Molecular target: GABARAP, O95166
# Experiment: median log2 fold change of GCK-ALFA target abundance (FLAG IP / Myc IP barcode read proportion) (log2 ratio); each designed protein is fused to an ALFA-tag nanobody in HEK293 cells to bring the named protein to FLAG-tagged glucokinase (GCK); Myc marks an untargeted standard; higher = target protein stabilised (more abundant)
# Settings: target protein: 3xFLAG-MCP-GCK-ALFA reporter; HEK293 landing pad (RPLP)
# How it was run: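 HEK293 landing-pad cells received a recombined binder library fused to the ALFA nanobody and were induced with 2 μg mL^−1 doxycycline, then transfected with a plasmid encoding a FLAG-tagged target and a Myc-tagged standard. Lysates were collected after 48 h for anti-FLAG and anti-Myc immunoprecipitation, and the circular RNA barcodes were reverse transcribed, amplified and sequenced. Target abundance for each binder is the median log2 ratio of FLAG to Myc barcode read proportions. Barcodes had to reach a proportion of at least 10^−7 in both replicates, each binder needed at least 3 barcodes per replicate, a pseudocount of 10^−6 was applied, and the two replicates were pooled.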
# Sequence of GABARAP, O95166 (O95166 whole entry, the tested form may be a part): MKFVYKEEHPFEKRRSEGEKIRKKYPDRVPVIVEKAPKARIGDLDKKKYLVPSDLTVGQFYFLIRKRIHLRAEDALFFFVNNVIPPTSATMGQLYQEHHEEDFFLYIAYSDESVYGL
row,Binder,median log2 fold change
1,B1,0.232
2,B2,0.163
3,B3,0.182
4,B4,0.18
5,B5,0.334
6,B6,-0.127
7,B7,0.0562
8,B8,0.101
9,B9,-0.0797
10,B10,-0.204
11,B11,0.247
12,B12,-0.067
13,B13,0.187
14,B14,0.0593
15,B15,0.181
16,B16,0.0982
17,B17,0.00161
18,B18,-0.13
19,B19,0.0518
20,B20,-0.0319
21,B21,0.0381
22,B22,-0.0855
23,B23,0.189
24,B24,0.0432
25,B25,0.153
26,B26,0.116
27,B27,0.284
28,B28,0.244
29,B29,0.168
